PubChem BioAssay AID1508623 (National Center for Advancing Translational Sciences (NCATS), 2021)
About 450 (0.94%) of roughly 48,000 compounds were called active. Inconclusive results, whose numbers are uncertain, are shown with a selection of clear calls. Calls follow the shape of the dose curve; as a rule, active = well fitted inhibition curve with a large enough effect; inconclusive = small, poorly fitted or top-dose-only effect; inactive = no such curve, though single readings can be large or run the other way. Potencies beside an inconclusive call are fits to weak or partial responses and may not hold up.

Assay: Primary qHTS for Identification of Small Molecule Inhibitors of Huntingtin Promoter Activity; also: nearly all actives have a fitted effect of over 50% in size
Conditions: HEK293 HTT promoter firefly luciferase reporter (activity 0% = vehicle and -100% = no light), 24 h; series mostly up to 57.5 µM
Excerpt: Assay Provider: Russell L. Margolis M.D.
Department Neurology, Johns Hopkins University School of Medicine, Baltimore, MD
Huntington's Disease (HD) is a neurodegenerative disorder caused by a CAG repeat expansion in exon 1 of huntingtin (HTT). While there are currently no disease-modifying treatments for HD, recent efforts have focused on development of nucleotide-based therapeutics to lower HTT expression. As an alternative to siRNA or oligonucleotide methods, we hypothesized that suppression of HTT expression might be accomplished by small molecules that either (1) directly decrease HTT expression by suppressing HTT promoter activity or (2) indirectly decrease HTT expression by increasing the promoter activity of HTT-AS, the gene antisense to HTT that appears to inhibit expression of HTT.
We developed and employed a high throughput screen for modifiers of HTT and HTT-AS promoter activity using luminescent reporter HEK293 cells; of the 52,041 compounds tested, we identified 898 replicable hits. We used a rigorous stepwise approach to assess compound toxicity and the capacity of the compounds to specifically lower huntingtin protein in 5 different cell lines, including HEK293 cells, HD lymphoblastoid cells, mouse primary neurons, HD iPSCs differentiated into cortical-like neurons, and HD hESCs. We found no compounds which were able to lower huntingtin without lowering cell viability in all assays, though the potential efficacy of a few compounds at non-toxic doses could not be excluded.
SEQUENCE No. (1, 2, 3, etc.); […] (e.g., Cells, Incubation, Reagent, etc.); VALUE and DESCRIPTION.
1; Reagent; 4 uL; 2,500 Hek293 luciferase reporter cells per wells
3; Compound; 23 nL; Control inhibitor / compound library
5; Reagent; 2.5 uL; Firefly Luc reagent; Dual-Glo Luciferase Reporter Assay System (Promega)
6; Time; 10 min; room temperature incubation
7; Detection; Luminescence; FLuc
NOTES (numbers refer to sequence above)
1; High-throughput screening, measuring luminescence from a Hek293 luciferase reporter, was performed in 1,536 well white-walled tissue-culture treated plates. 2,500 cells were plated in 4 µL of Opti-MEM per well using a Multidrop Combi Reagent Dispenser (ThermoFisher).
2; Assay plates were cultured for 24 hours.
3; Control inhibitor (PTC124; final concentration of 50 uM) and compound library (at final concentrations of 460 nM - 57.5 uM) were added to the assay plate using the Kalypsis Pintool Robotic System equipped with 1536 pinheads.
4; Cells were then incubated for 24 hours at 37 degrees C prior to luminescence measurements.
5; In all cases, luminescence was measured using the Dual-Glo Luciferase Reporter Assay System (Promega) following the manufacturer's instructions.
6; Room temperature incubation.
7; Luminescence signal was obtained using the PerkinElmer ViewLux plate reader. Results were normalized to vehicle control (0% activity) and zero RLU (-100% activity).
Potency is read from the fitted curve at half-maximal effect; tags tell the direction and shape of the fitted curve.

SMILES | Potency
CN1C(=O)c2ccccc2Sc2ccc(NC(=O)COc3ccccc3)cc21 | inconclusive: 17.8 µM [inhibitor, single point]
COc1ccc(C(=O)/C=C/c2cn(CC(O)CN(CC(C)C)CC(C)C)c3ccccc23)cc1 (stereo not drawn) | inconclusive: 39.8 µM [inhibitor, single point]
COc1cccc(N2C(=O)CSC23C(=O)N(Cc2ccccc2)c2ccccc23)c1 (stereo not drawn) | inconclusive: 39.8 µM [inhibitor, single point]
Cc1ccc(C)c(CSc2cn(CC(=O)N3CCCCCC3)c3ccccc23)c1 | inconclusive: 17.8 µM [inhibitor, partial curve, poor fit]
COc1ccc(C[C@@H](C)[C@@H](C)Cc2ccc(OC)c(OC)c2)cc1OC | inconclusive: 1.72 µM [inhibitor, full curve]
CC[C@H]1CN2CCc3cc(OC)c(OC)cc3[C@H]2C[C@@H]1C[C@@H]1NCCc2cc(OC)c(OC)cc21 | inconclusive: 1.93 µM [inhibitor, full curve]
Cc1ccc2c(c1)sc1nc(-c3cc4ccccc4oc3=O)cn12 | inconclusive: 0.178 µM [inhibitor, full curve, poor fit]
COc1ccc(N2CCN(c3c4c(nc5nncn35)CCC4)CC2)cc1 | inconclusive: 15.8 µM [inhibitor, partial curve, poor fit]
COc1ccc(CCNC(=O)c2cc(Nc3cc(C)cc(C)c3)nc3ccccc23)cc1OC | inactive
CCc1ccccc1NC(=O)CSc1ncc(S(=O)(=O)c2ccccc2)c(N)n1 | inconclusive: 35.5 µM [inhibitor, partial curve, poor fit]
Cc1c(Cl)cccc1Nc1nn2c(=O)c3ccc(C(=O)NCCc4ccccc4)cc3nc2s1 | inactive
Cc1cccc(N(CC(=O)NCCSCc2ccc(Cl)cc2)S(C)(=O)=O)c1C | inactive
CC(=O)c1cccc(NC(=O)c2cccn2-c2nnc(N3CCCCC3)s2)c1 | inactive
CCOC(=O)Cn1c(=O)oc2cc(S(=O)(=O)N3CCN(c4ccccc4F)CC3)ccc21 | inconclusive: 39.8 µM [inhibitor, single point]
O=C(c1ccc2c(c1)N(Cc1ccc(Cl)cc1)C(=O)c1ccccc1S2=O)N1CCN(c2ccccc2F)CC1 (stereo not drawn) | inconclusive: 28.2 µM [inhibitor, partial curve, poor fit]
CCCCOc1ccc(C(=O)N2CCC(c3nc4ccccc4o3)CC2)cc1 | inconclusive: 28.2 µM [inhibitor, single point]
COC(=O)c1sc2cccc(F)c2c1S(=O)(=O)N1CCN(c2ccccc2OC)CC1 | inconclusive: 35.5 µM [inhibitor, single point]
CCOc1ccc(C(=O)Nc2nnc(S(=O)(=O)N(CC)c3ccccc3C)s2)cc1 | inconclusive: 39.8 µM [inhibitor, single point]
CC(=O)c1cccc(NC(=O)CCCN2C(=O)COc3ccc(C)cc32)c1 | inconclusive: 15.8 µM [inhibitor, partial curve, poor fit]
O=C(NCCc1ccccc1)c1ccc2c(c1)CCN2S(=O)(=O)c1ccc(Br)cc1 | inconclusive: 20 µM [inhibitor, partial curve, poor fit]

SMILES | Potency
CCC(=O)N1CCCc2cc(S(=O)(=O)N3CCC(C(=O)Nc4ccc(F)c(F)c4)CC3)ccc21 | inconclusive: 39.8 µM [inhibitor, single point]
CCNc1nc2c(c(=O)[nH]c(=O)n2C)n1CC(O)COc1ccc(Cl)cc1Cl (stereo not drawn) | inconclusive: 20 µM [inhibitor, partial curve, poor fit]
COc1ccc(CNc2ccc3cc(S(=O)(=O)N4CCCCC4)ccc3n2)cc1 | inconclusive: 28.2 µM [inhibitor, single point]
O=C(Cc1ccccc1)Nc1c(C(=O)N2CCN(c3ccc(F)cc3)CC2)oc2ccccc12 | inconclusive: 22.4 µM [inhibitor, single point]
Cc1cc(C)c2c(=O)c3c(oc2c1)C(=O)N(Cc1ccc(F)cc1)C3c1cccc(O)c1 (stereo not drawn) | inconclusive: 10 µM [inhibitor, partial curve]
COc1cccc(NC(=O)CN2CCCN(S(=O)(=O)c3ccc(Br)cc3)CC2)c1 | inconclusive: 28.2 µM [inhibitor, partial curve]
CCc1ccc(NC(=O)c2cc(-c3cccs3)on2)cc1 | inactive
COc1ccccc1CNC(=O)C1CCCN(c2nn3cc(-c4ccc(F)cc4)nc3s2)C1 (stereo not drawn) | inconclusive: 10 µM [inhibitor, partial curve]
COc1ccccc1CNC(=O)CCc1c(C)nc2cc(-c3ccccc3OC)nn2c1C | inconclusive: 31.6 µM [inhibitor, partial curve]
COc1ccc(C2CC(=O)c3c(C)nc(N4CCN(C=O)CC4)nc3C2)c(OC)c1 (stereo not drawn) | inconclusive: 39.8 µM [inhibitor, single point]
Cc1nnc(NC(=O)CSc2nccn2-c2ccc(Cl)cc2)s1 | inconclusive: 39.8 µM [inhibitor, single point]
COC(=O)c1ccc(C(=O)OC)c(NC(=O)N2CC3CCCN3c3ccccc32)c1 (stereo not drawn) | inconclusive: 22.4 µM [inhibitor, partial curve, poor fit]
Cc1ccc2nc(COc3cccc(NC(=O)COc4ccccc4F)c3)cc(=O)n2c1 | inactive
O=C(Nc1ccc2nc(SCC(=O)N3CCCC3)sc2c1)c1ccc(Br)cc1 | inactive
CC1(C)CCC(CN2CCN(c3ccc(C(=O)NS(=O)(=O)c4ccc(NCC5CCOCC5)c([N+](=O)[O-])c4)c(Oc4cnc5[nH]ccc5c4)c3)CC2)=C(c2ccc(Cl)cc2)C1 | inactive
Cc1ccc(NC(=O)c2cc(S(=O)(=O)N3CCCc4ccccc43)ccc2F)cc1F | inconclusive: 28.2 µM [inhibitor, single point]
Cc1ccc(OCC(=O)Nc2cc(-c3nc4ccccc4[nH]3)ccc2C)c(C)c1 | inactive
Cc1cccc(OCCSc2nc3ccc(NC(=O)c4cccs4)cc3s2)c1 | inconclusive: 39.8 µM [inhibitor, single point]
CCn1c(CN2CCCCC2)nc2cc(NC(=O)c3ccccc3[N+](=O)[O-])ccc21 | inactive
COc1ccccc1NC(=O)CN1C(=O)CC(c2ccc(C)c(C)c2)=Nc2ccccc21 | inactive

SMILES | Potency
COc1ccc(N2CCN(S(=O)(=O)CCNC(=O)COc3cccc(OC)c3)CC2)cc1 | inconclusive: 39.8 µM [inhibitor, single point]
Cc1cccc(Cn2c(SCc3ccc(C(=O)N4CCC(C)CC4)cc3)nc3ccncc32)c1 | inconclusive: 39.8 µM [inhibitor, partial curve, poor fit]
COc1ccc(CNC(=O)C2CCN(c3nnc(-n4cccc4CNc4ccc(C)cc4)s3)CC2)c(OC)c1 | inconclusive: 35.5 µM [inhibitor, single point]
Cc1ccc(S(=O)(=O)c2nc(-c3cccc(C)c3)oc2N2CCCCC2)cc1 | inconclusive: 31.6 µM [inhibitor, partial curve, poor fit]
COc1cccc(Nc2sc(C(=O)c3ccc(F)cc3)c(N)c2C(=O)NCc2ccc(C)cc2)c1 | inconclusive: 11.2 µM [inhibitor, partial curve, poor fit]
O=C(CN(CCc1ccccc1)S(=O)(=O)c1ccccc1)NCc1ccc(Cl)cc1 | inconclusive: 28.2 µM [inhibitor, single point]
COc1cc(CNc2ccc3c(c2)ncn3C(C)C)cc(OC)c1OC | inconclusive: 11.2 µM [inhibitor, partial curve, poor fit]
Cc1ccc(Cl)cc1N1CCN(C(=O)c2cc(S(=O)(=O)N3CCCCCC3)cn2C)CC1 | inconclusive: 28.2 µM [inhibitor, partial curve, poor fit]
CN(Cc1ccc(F)cc1)S(=O)(=O)c1nnc(NC(=O)c2ccc(F)cc2)s1 | inconclusive: 22.4 µM [inhibitor, single point]
O=C(CSc1nc2c([nH]c3ccccc32)c(=O)n1-c1ccccc1F)Nc1ccccc1C(F)(F)F | inconclusive: 25.1 µM [inhibitor, partial curve, poor fit]
COc1ccc(NC(=O)C2CCCN(S(=O)(=O)c3ccc4c(c3)CCCN4C(C)=O)C2)cc1 (stereo not drawn) | inconclusive: 15.8 µM [inhibitor, partial curve, poor fit]
Cc1ccc2c(c1)CC(C)N2S(=O)(=O)c1nnc(NC(=O)c2ccccc2F)s1 (stereo not drawn) | inconclusive: 31.6 µM [inhibitor, single point]
CCOC(=O)c1cc(-c2ccccc2)n(CCC(=O)Nc2ccc(C)cc2Cl)c1C | inconclusive: 14.1 µM [inhibitor, partial curve, poor fit]
Cc1ccc2c(c1)C(=O)C(=O)N2Cc1ccc(OC(C)C)cc1 | inconclusive: 31.6 µM [inhibitor, partial curve, poor fit]
Cc1c(C(=O)Nc2ccc(F)c(F)c2)oc2ccc(S(=O)(=O)N(C)C3CCCCC3)cc12 | inconclusive: 39.8 µM [inhibitor, single point]
CCN(CC)CCn1c2c(c(SCC(=O)Nc3cccc(C(F)(F)F)c3)nc1=O)CCC2 | inactive
CCOc1ccc(-c2cn3c(n2)sc2cc(C(=O)NCCCN(CC)CC)ccc23)cc1 | inconclusive: 25.1 µM [inhibitor, partial curve, poor fit]
O=C(Nc1ccc(F)cc1)C1CCCN(c2ncnc3c2nc2n3CCCCC2)C1 (stereo not drawn) | inconclusive: 20 µM [inhibitor, single point]
